Data from publication PMC10397247.
Read-outs that look alike come from different tables or passages of the source.

Key:
[1] = biological target: T1, P10-AA; test: two-hybrid library CCmax;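 further: natural log of median RNA to DNA barcode read ratio; higher means stronger binding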
T1 chain: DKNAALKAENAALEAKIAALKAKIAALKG

[2] = biological target: T2, P4-AA; test: two-hybrid library CCmax;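 further: natural log of median RNA to DNA barcode read ratio; higher means stronger binding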
T2 chain: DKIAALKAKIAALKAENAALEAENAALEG

[3] = biological target: T3, zCON9_D; test: two-hybrid library CCmax;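 further: natural log of median RNA to DNA barcode read ratio; higher means stronger binding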
T3 chain: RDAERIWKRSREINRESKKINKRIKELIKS

[4] = biological target: T4, P12-AA; test: two-hybrid library CCmax;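 further: natural log of median RNA to DNA barcode read ratio; higher means stronger binding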
T4 chain: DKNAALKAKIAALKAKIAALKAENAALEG

[5] = biological target: T5, P11-AA; test: two-hybrid library CCmax
T5 chain: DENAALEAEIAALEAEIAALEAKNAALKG

[6] = biological target: T6, P8-AA; test: two-hybrid library CCmax
T6 chain: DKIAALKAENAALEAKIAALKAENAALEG

[7] = biological target: T7, O11-AA; test: two-hybrid library CCmax
T7 chain: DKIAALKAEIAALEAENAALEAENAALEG

[8] = biological target: T8, zCON9_B; test: two-hybrid library CCmax; conditions: mean of both orientations
T8 chain: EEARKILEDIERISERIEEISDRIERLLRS

[9] = biological target: T9, P2-AA; test: two-hybrid library CCmax
T9 chain: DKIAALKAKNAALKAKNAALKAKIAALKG

[10] = biological target: T10, P3-AA; test: two-hybrid library CCmax
T10 chain: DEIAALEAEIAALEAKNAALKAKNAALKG

[11] = biological target: T11, P9-AA; test: two-hybrid library CCmax
T11 chain: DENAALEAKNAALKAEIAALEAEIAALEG

[12] = biological target: T12, O13-AA; test: two-hybrid library CCmax; conditions: mean of both orientations
T12 chain: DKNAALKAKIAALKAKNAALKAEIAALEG

[13] = biological target: T13, P1-AA; test: two-hybrid library CCmax
T13 chain: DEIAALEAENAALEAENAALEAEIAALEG

[14] = biological target: T14, P7-AA; test: two-hybrid library CCmax
T14 chain: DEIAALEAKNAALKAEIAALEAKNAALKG

[15] = biological target: GCN2_T; test: two-hybrid library CCmax
[16] = biological target: T15, AP7-AA; test: two-hybrid library CCmax
T15 chain: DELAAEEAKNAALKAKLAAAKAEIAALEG

[17] = biological target: T16, AP8-AA; test: two-hybrid library CCmax
T16 chain: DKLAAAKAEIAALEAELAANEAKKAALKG

[18] = biological target: T17, zCON9_A; test: two-hybrid library CCmax
T17 chain: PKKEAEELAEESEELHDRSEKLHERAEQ

[19] = biological target: T18, AP3-AA; test: two-hybrid library CCmax
T18 chain: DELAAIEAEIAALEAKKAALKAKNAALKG

[20] = biological target: T19, AP6-AA; test: two-hybrid library CCmax
T19 chain: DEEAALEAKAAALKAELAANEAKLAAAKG

[21] = biological target: T20, O14-AA; test: two-hybrid library CCmax
T20 chain: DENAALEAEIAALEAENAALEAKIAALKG

[22] = biological target: T21, AP2-AA; test: two-hybrid library CCmax
T21 chain: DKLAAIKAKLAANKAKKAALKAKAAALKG

[23] = biological target: T22, AP4-AA; test: two-hybrid library CCmax
T22 chain: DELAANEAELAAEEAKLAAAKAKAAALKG

[24] = biological target: T23, AP5-AA; test: two-hybrid library CCmax; conditions: mean of both orientations
T23 chain: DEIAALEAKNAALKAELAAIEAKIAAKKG

[25] = biological target: T24, AP1-AA; test: two-hybrid library CCmax
T24 chain: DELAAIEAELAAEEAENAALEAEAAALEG

[26] = biological target: GCN4-S; test: two-hybrid library CCNG1
[27] = biological target: GCN4-SN; test: two-hybrid library CCNG1
[28] = biological target: GCN4-SN; test: two-hybrid library CCmax
[29] = biological target: GCN2_TK; test: two-hybrid library CCmax

QLEDKVEELLRKNYHLENEVERLKKLVG [GCN2_T]
interaction score ([1]; mean of both orientations): -2.08
interaction score ([2]; mean of both orientations): -1.9
interaction score [3]: -1.86
interaction score [4]: -1.65
interaction score [5]: -0.724
interaction score [6]: -1.3
interaction score [7]: -2
interaction score [8]: 0.172
interaction score [9]: -1.79
interaction score [10]: -1.11
interaction score [11]: -1.74
interaction score [12]: -0.908
interaction score [13]: -2.26
interaction score ([14]; mean of both orientations): -0.868
interaction score [15]: -1.72

QLEDKIEELLSKNYHLENEIARLKKLIG [4H_GCN4]
interaction score [1]: -1.25
interaction score [16]: -2.02
interaction score [2]: -1.93
interaction score [3]: -1.77
interaction score [4]: -2.08
interaction score [17]: -2.7
interaction score [18]: -1.53
interaction score [19]: -2.07
interaction score ([5]; mean of both orientations): -0.988
interaction score ([6]; mean of both orientations): -1.41
interaction score [7]: -2.12
interaction score [8]: 0.379
interaction score [9]: -1.86
interaction score [10]: -1.56
interaction score [11]: -1.6
interaction score [12]: -1.4
interaction score [20]: -1.68
interaction score [21]: -0.609
interaction score [13]: -1.57
interaction score [22]: -2.37
interaction score [23]: -2.11
interaction score [24]: 0.704
interaction score [14]: -0.689
interaction score [25]: -2.19
interaction score [15]: -2.01

QLEDKVEELLSKNYHLENEVSRLKKLVG [GCN4-S]
interaction score [26]: -2.49

QLEDKVEELLSKNYHLENEVERLKKLVG [GCN4-SN]
interaction score [27]: -2.31
interaction score [28]: -1.38

KQLEDKVEELLRKNYHLENEVERLKKLVG [GCN2_TK]
interaction score [29]: -0.172
